Data reported in patent publication US8592383B2, “Cycloalkyl-fused tetrahydroquinolines as CRTH2 receptor modulators” (Merck Sharp & Dohme Corp., priority 2011, dated 2013).

Each compound was assayed against T1, hCRTH2 (Homo sapiens, UniProt Q9Y5Y4) (assay: biochemical). Details: Ki (nM), Table A; Radioligand Binding Assay A, [3H]PGD2, HEK-hCRTH2 membranes.
T1 sequence (Q9Y5Y4 1-395): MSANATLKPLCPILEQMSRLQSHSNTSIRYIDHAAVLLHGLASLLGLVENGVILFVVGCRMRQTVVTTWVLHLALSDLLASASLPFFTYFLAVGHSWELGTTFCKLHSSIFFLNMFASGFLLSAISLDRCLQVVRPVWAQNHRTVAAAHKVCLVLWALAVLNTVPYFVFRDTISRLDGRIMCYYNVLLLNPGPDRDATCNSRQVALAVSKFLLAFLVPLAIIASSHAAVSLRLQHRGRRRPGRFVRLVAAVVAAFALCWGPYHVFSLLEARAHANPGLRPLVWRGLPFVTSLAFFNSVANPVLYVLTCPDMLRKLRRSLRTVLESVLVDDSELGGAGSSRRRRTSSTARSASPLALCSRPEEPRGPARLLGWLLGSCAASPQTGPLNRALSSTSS

**Q.** `O=C(O)CCC(=O)N(C1CCC1)C1c2ccccc2N(C(=O)c2ccc(F)cc2)C2CCCC21` (single isomer, unassigned) [17DB, 4-[cyclobutyl[cis,cis-4-(4-fluorobenzoyl)-2,3,3a,4,9,9a-hexahydro-1H-cyclopenta[b]quinolin-9-yl]amino]-4-oxobutanoic acid] was tested. Which Ki did it give?
**A.** 20.1 to 200 nM

**Q.** Which Ki does the source give for `C[C@@H](NC(=O)N(C1CC1)C1c2ccccc2N(C(=O)c2ccc(OC(F)(F)F)cc2)C2CCCC21)C(=O)O` (mixture of isomers) [35F, N-[[cyclopropyl[cis,cis-2,3,3a,4,9,9a-hexahydro-4-[4-(trifluoromethoxy)benzoyl]-1H-cyclopenta[b]quinolin-9-yl]amino]carbonyl]-D-alanine] here?
**A.** 201 to 7500 nM

**Q.** For `CCN(C(=O)CCC(=O)O)C1c2ccccc2N(C(=O)c2cccc3ccccc23)C2CCC12` (single isomer, unassigned) [compound 96, 4-((cis, cis-3-(1-naphthoyl)-1,2,2a,3,8,8a-hexahydrocyclobuta[b]quinolin-8-yl)(ethyl)amino)-4-oxobutanoic acid], which Ki is on record?
**A.** 5.1 to 20 nM

**Q.** Which Ki does the source give for `COc1cccc(C(=O)N2c3ccccc3C(N(C(=O)CCC(=O)O)C3CC3)C3CCCC32)c1` (racemic) [17AL, 4-[cyclopropyl[cis,cis-2,3,3a,4,9,9a-hexahydro-4-(3-methoxybenzoyl)-1H-cyclopenta[b]quinolin-9-yl]amino]-4-oxobutanoic acid] here?
**A.** 5.1 to 20 nM

**Q.** `O=C(O)[C@H]1CCN1C(=O)N(C1CC1)C1c2cc(F)c(F)cc2N(C(=O)OCc2ccccc2)C2CCC21` (single isomer, unassigned) [compound 151] was tested. Which Ki did it give?
**A.** 5.1 to 20 nM

**Q.** `O=C(O)CCC(=O)N(C1CCC1)C1c2ccc(Cl)cc2N(C(=O)c2ccc3ccccc3c2)C2CCCC21` (single isomer, unassigned) [17CR, 4-[[cis,cis-6-chloro-2,3,3a,4,9,9a-hexahydro-4-(2-naphthalenylcarbonyl)-1H-cyclopenta[b]quinolin-9-yl]cyclobutylamino]-4-oxobutanoic acid] was tested. Which Ki did it give?
**A.** 1 to 5 nM

**Q.** With `O=C(O)COC(=O)N(C1CC1)C1c2ccccc2N(c2nnc(Cc3ccc(OC(F)(F)F)cc3)o2)C2CCCC21` (single isomer, unassigned) [38F, [[[cyclopropyl[cis,cis 2,3,3a,4,9,9a-hexahydro-4-[5-[[4-(trifluoromethoxy)phenyl]methyl]-1,3,4-oxadiazol-2-yl]-1H-cyclopenta[b]quinoline-9-yl]amino]carbonyl]oxy]acetic acid] as the compound, how does the Ki read?
**A.** 5.1 to 20 nM

**Q.** `CC(C)C(=O)N(CCCC(=O)O)C1c2ccccc2N(C(=O)c2ccc(OC(F)(F)F)cc2)C2CCCC12` (racemic) [47G, 4-[[cis,cis-2,3,3a,4,9,9a-hexahydro-4-[4-(trifluoromethoxy)benzoyl]-1H-cyclopenta[b]quinolin-9-yl](2-methyl-1-oxopropyl)amino]butanoic acid] was tested. Which Ki did it give?
**A.** 201 to 7500 nM

**Q.** For `O=C(O)CCC(=O)N(C1CC1)C1c2ccccc2N(C(=O)OCc2ccc(OC(F)(F)F)cc2)C2CCCC21` (single isomer, unassigned) [22J, 4-[[4-(trifluoromethoxy)phenyl]methyl] cis, cis-[(3-carboxy-1-oxopropyl)cyclopropylamino]-1,2,3,3a,9,9a-hexahydro-4H-cyclopenta[b]quinoline-4-carboxylate], which Ki is on record?
**A.** 201 to 7500 nM

**Q.** For `O=C(O)CCC(=O)N(C1CC1)C1c2ccccc2N(C(=O)c2cccc(OC(F)(F)F)c2)C2CCC21` (single isomer, unassigned) [27S, 4-[cyclopropyl[cis,cis-1,2,2a,3,8,8a-hexahydro-3-[3-(trifluoromethoxy)benzoyl]cyclobuta[b]quinolin-8-yl]amino]-4-oxobutanoic acid], which Ki is on record?
**A.** 1 to 5 nM

**Q.** Which Ki does the source give for `O=C(O)CCCN(CC1CCCC1)C1c2ccccc2N(C(=O)c2ccc(OC(F)(F)F)cc2)C2CCCC12` (racemic) [compound 123, 4-[(cyclopentylmethyl)[cis-2,3,3a,4,9,9a-hexahydro-4-[4-(trifluoromethoxy)benzoyl]-1H-cyclopenta[b]quinolin-9-yl]amino]butanoic acid] here?
**A.** 20.1 to 200 nM

**Q.** Which Ki does the source give for `O=C(O)CCC(=O)N(C1CC1)[C@H]1c2cc(F)ccc2N(C(=O)c2cccc(OC(F)(F)F)c2)[C@H]2CCC[C@H]21` (single isomer, unassigned) [17DF] here?
**A.** 201 to 7500 nM

**Q.** For `C[C@H](OC(=O)N1c2cc(Cl)ccc2C(N(C(=O)CCC(=O)O)C2CC2)C2CCCC21)c1ccc(F)cc1` (single isomer, unassigned) [22U], which Ki is on record?
**A.** 1 to 5 nM

**Q.** For `O=C(O)CCC(=O)N(C1CC1)C1c2cc(C3CC3)ccc2N(C(=O)c2ccc(OC(F)(F)F)cc2)C2CCCC21` (single isomer, unassigned) [compound 168, 4-(cyclopropyl(cis, cis-7-cyclopropyl-4-(4-(trifluoromethoxy)benzoyl)-2,3,3a,4,9,9a-hexahydro-1H-cyclopenta[b]quinolin-9-yl)amino)-4-oxobutanoic acid], which Ki is on record?
**A.** 20.1 to 200 nM

**Q.** Which Ki does the source give for `O=C(O)CCC(=O)N(C1CC1)C1c2ccccc2N(C(=O)CCc2ccccc2)C2CCCC21` (racemic) [17BA, 4-(cyclopropyl(cis,cis-4-(3-phenylpropanoyl)-2,3,3a,4,9,9a-hexahydro-1H-cyclopenta[b]quinolin-9-yl)amino)-4-oxobutanoic acid] here?
**A.** 20.1 to 200 nM

**Q.** Which Ki does the source give for `CCN(C(=O)CCC(=O)O)C1c2ccccc2N(C(=O)c2ccc(F)cc2F)C2CCC12` (single isomer, unassigned) [compound 97, 4-((cis, cis-3-(2,4-difluorobenzoyl)-1,2,2a,3,8,8a-hexahydrocyclobuta[b]quinolin-8-yl)(ethyl)amino)-4-oxobutanoic acid] here?
**A.** 20.1 to 200 nM

**Q.** Which Ki does the source give for `O=C(O)CCC(=O)N(C1CCC1)C1c2ccccc2N(C(=O)C2CC2c2ccccc2)C2CCCC21` (single isomer, unassigned) [17DE, 4-[cyclobutyl[cis,cis-2,3,3a,4,9,9a-hexahydro-4-[(trans-2-phenylcyclopropyl)carbonyl]-1H-cyclopenta[b]quinolin-9-yl]amino]-4-oxobutanoic acid] here?
**A.** 5.1 to 20 nM

**Q.** How did the Ki turn out when `CCN(c1nc(C(=O)O)co1)[C@@H]1c2ccccc2N(C(=O)c2ccc(OC(F)(F)F)cc2)[C@@H]2CCC[C@H]12` (racemic) [compound 40, 2-[Ethyl[cis,cis-2,3,3a,4,9,9a-hexahydro-4-[4-(trifluoromethoxy)benzoyl]-1H-cyclopenta[b]quinolin-9-yl]amino]-4-oxazolecarboxylic acid] was run?
**A.** 20.1 to 200 nM

**Q.** How did the Ki turn out when `O=C(O)CCCN(C(=O)c1ccccc1)C1c2ccccc2N(C(=O)c2ccc(OC(F)(F)F)cc2)C2CCCC12` (racemic) [47D, 4-[benzoyl[cis,cis-2,3,3a,4,9,9a-hexahydro-4-[4-(trifluoromethoxy)benzoyl]-1H-cyclopenta[b]quinolin-9-yl]amino]butanoic acid] was run?
**A.** 5.1 to 20 nM

**Q.** How did the Ki turn out when `CCN(C(=O)CCC(=O)O)C1c2ccccc2N(C(=O)OCc2cccc(F)c2)C2CCCC12` (single isomer, unassigned) [compound 76, 4-[(3-fluorophenyl)methyl] cis, cis-[(3-carboxy-1-oxopropyl)ethylamino]-1,2,3,3a,9,9a-hexahydro-4H-cyclopenta[b]quinoline-4-carboxylate] was run?
**A.** 5.1 to 20 nM

**Q.** `O=C(O)CCC(=O)N(C1CC1)C1c2ccccc2N(C(=O)c2ccc(Cl)cc2Cl)C2CCCC21` (racemic) [17BH, 4-(cyclopropyl(cis,cis-4-(2,4-dichlorobenzoyl)-2,3,3a,4,9,9a-hexahydro-1H-cyclopenta[b]quinolin-9-yl)amino)-4-oxobutanoic acid] was tested. Which Ki did it give?
**A.** 5.1 to 20 nM

**Q.** For `O=C(O)CCCN(C1CC1)[C@@H]1c2ccccc2N(C(=O)c2ccc(OC(F)(F)F)cc2)[C@@H]2CCC[C@@H]21` (racemic) [compound 44, 4-[Cyclopropyl[cis,cis-2,3,3a,4,9,9a-hexahydro-4-[4-(trifluoromethoxy)benzoyl]-1H-cyclopenta[b]quinolin-9-yl]amino]butanoic acid], which Ki is on record?
**A.** 1 to 5 nM

**Q.** `CN(C(=O)CCC(=O)O)C1c2ccccc2N(C(=O)c2ccc(OC(F)(F)F)cc2)C2CCCC12` (racemic) [17S] was tested. Which Ki did it give?
**A.** 5.1 to 20 nM

**Q.** For `O=C(O)CCC(=O)N(C1CC1)C1c2ccccc2N(C(=O)c2cccc(Br)c2)C2CCCC21` (racemic) [17AH, 4-[[cis,cis-4-(3-bromobenzoyl)-2,3,3a,4,9,9a-hexahydro-1H-cyclopenta[b]quinolin-9-yl]cyclopropylamino]-4-oxobutanoic acid], which Ki is on record?
**A.** 5.1 to 20 nM

**Q.** With `CCN(C(=O)CCC(=O)O)C1c2ccccc2N(C(=O)c2ccc(C(F)(F)F)cc2)C2CCCC12` (single isomer, unassigned) [compound 68, 4-[ethyl[cis, cis-2,3,3a,4,9,9a-hexahydro-4-[4-(trifluoromethyl)benzoyl]-1H-cyclopenta[b]quinolin-9-yl]amino]-4-oxobutanoic acid] as the compound, how does the Ki read?
**A.** 5.1 to 20 nM

**Q.** With `O=C(O)CCC(=O)N(C1CC1)C1c2ccccc2N(C(=O)c2ccc3ccccc3n2)C2CCCC21` (racemic) [17AN, 4-[cyclopropyl[cis.cis-2,3,3a,4,9,9a-hexahydro-4-(2-quinolinylcarbonyl)-1H-cyclopenta[b]quinolin-9-yl]amino]-4-oxobutanoic acid] as the compound, how does the Ki read?
**A.** 20.1 to 200 nM

**Q.** How did the Ki turn out when `O=C(O)CCC(=O)N(C1CC1)C1c2cc(F)ccc2N(C(=O)OCc2ccccc2)C2CCC21` (single isomer, unassigned) [27A, 3-(phenylmethyl) cis, cis-[(3-carboxy-1-oxopropyl)cyclopropylamino]-6-fluoro-2,2a,8,8a-tetrahydrocyclobuta[b]quinoline-3(1H)-carboxylate] was run?
**A.** 5.1 to 20 nM

**Q.** With `O=C(O)CCC(=O)N(C1CC1)C1c2ccccc2N(C(=O)c2ccco2)C2CCCC21` (racemic) [17BL, 4-(cyclopropyl(cis,cis-4-(furan-2-carbonyl)-2,3,3a,4,9,9a-hexahydro-1H-cyclopenta[b]quinolin-9-yl)amino)-4-oxobutanoic acid] as the compound, how does the Ki read?
**A.** 20.1 to 200 nM
